# PubChem BioAssay (Tox21)
# Several values for one entry are separate records, joined by “and”; a condition that tells them apart may be missing. Equal values may be shown once. The shares of active, inactive and inconclusive entries below differ from those in the screen. A potency beside an inconclusive call is a rough fit, not a confirmed value. Activity calls are given as the source filed them. Calls come from the whole dose curve; as a rule, active = well fitted inhibition curve with a large enough effect in the signal ratio in the repeat runs (not every such curve was filed as active); inconclusive = weak or mixed curves, or effect the other way; inactive = no such curve, though single readings can be large or run the other way; the % refers to the signal ratio.
# Target: Glucocorticoid receptor (Homo sapiens) (UniProt P04150)
# Chain of UniProt P04150 (P04150 whole entry, looked up): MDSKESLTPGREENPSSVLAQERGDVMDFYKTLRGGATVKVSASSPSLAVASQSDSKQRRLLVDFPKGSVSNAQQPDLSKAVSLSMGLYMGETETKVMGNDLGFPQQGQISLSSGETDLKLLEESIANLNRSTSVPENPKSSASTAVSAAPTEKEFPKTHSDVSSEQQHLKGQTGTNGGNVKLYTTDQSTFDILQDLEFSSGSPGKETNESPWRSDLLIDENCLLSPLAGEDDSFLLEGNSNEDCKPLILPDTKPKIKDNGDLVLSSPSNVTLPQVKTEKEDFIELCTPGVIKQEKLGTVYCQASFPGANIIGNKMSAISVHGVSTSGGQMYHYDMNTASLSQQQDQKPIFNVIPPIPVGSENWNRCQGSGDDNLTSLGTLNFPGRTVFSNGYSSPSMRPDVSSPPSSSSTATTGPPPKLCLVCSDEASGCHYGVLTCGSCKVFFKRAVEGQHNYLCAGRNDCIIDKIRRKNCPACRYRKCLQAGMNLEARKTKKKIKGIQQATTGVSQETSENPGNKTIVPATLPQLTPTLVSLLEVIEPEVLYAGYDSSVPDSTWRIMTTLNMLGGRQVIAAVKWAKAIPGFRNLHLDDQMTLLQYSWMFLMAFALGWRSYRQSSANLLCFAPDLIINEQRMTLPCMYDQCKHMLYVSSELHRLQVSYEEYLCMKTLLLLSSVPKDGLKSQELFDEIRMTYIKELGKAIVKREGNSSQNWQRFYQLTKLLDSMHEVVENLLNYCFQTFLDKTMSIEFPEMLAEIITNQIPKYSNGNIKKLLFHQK
# Assay: qHTS assay to identify small molecule antagonists of the glucocorticoid receptor (GR) signaling pathway (AID 720692)
# Conditions: GR-bla HeLa, beta-lactamase FRET ratio, dexamethasone-stimulated, 18 h; activity change, negative = inhibition: at 58.5 µM (top of the series) unless noted
# Excerpt: U.S. Tox21 Program National Center for Advancing Translational Sciences [NCATS] NIH Chemical Genomics Center [NCGC] U.S. Environmental Protection Agency [EPA] National Institutes of Environmental Health Sciences [NIEHS] National Toxicology Program [NTP] U.S. Food and Drug Administration [FDA] Tox21 Assay Overview: The Glucocorticoid receptor (GR) is one of the members of the nuclear receptor family of ligand-dependent transcription factors. GR plays a critical role in carbohydrate, protein and lipid metabolisms and programmed cell death. CellSensor GR-bla HeLa cell line (Invitrogen) contains a beta-lactamase reporter gene under the control of the glucocorticoid response element stably integrated into HeLa cells, a cervical cancer cell line that expresses glucocorticoid receptor. The activation of the reporter gene under culture conditions can be detected by fluorescence intensity. This cell line has been used to screen the Tox21 10K compound library and to identify the compounds that inhibit the GR signaling.
# Tox21 Assay Protocol Summary: The GR-bla HeLa cells were dispensed at 1500 cells/5 ul/well in 1536-well black wall/clear bottom plates using a Multidrop Combi (ThermoFisher Scientific, Waltham, MA) dispenser. After the assay plates were incubated at a 37 C/5% CO2 incubator for 4 hours, 23 nL of compounds dissolved in DMSO, positive controls or DMSO only was transferred to the assay plate by a pintool station (Kalypsys, San Diego, CA), followed by addition of 1 uL of dexamethasone (5 nM, final concentration in the well). The plates were incubated at 37 C for 18 hours. After 1 uL of LiveBLAzerTM B/G FRET substrate was added using a Flying Reagent Dispenser (Aurora Discovery, San Diego, CA), the plates were incubated at room temperature for 2 hours, and fluorescence intensity was measured by an Envision plate reader (PerkinElmer, Shelton, CT).
# % is set by controls: 0 for no effect and ±100 for the full control effect; potency is the fitted concentration of half-maximal effect; tags give direction and shape of the fitted curve or compound fluorescence and quenching.
Structure (SMILES),Potency,"activity change, negative = inhibition"
C1CNCCN1,inactive,–
CN[C@@H]1[C@@H](O)[C@@H](O[C@@H]2[C@H](O)[C@H](O[C@H]3OC(CN)=CC[C@H]3N)[C@@H](N)C[C@H]2N)OCC1(C)O (stereo not given in full),–,inactive: 16.9%
CCCCC/C=C\C/C=C\CCCCCCCC(=O)NC(C)c1ccccc1 (stereo not given),–,inconclusive: -23.5%
OC(CCl)CCl,inactive,–
O=C(O)c1cc(N=Nc2ccc([N+](=O)[O-])cc2)ccc1O,active: 27 µM,–
Nc1cccc(N)n1,inconclusive: 9.77 µM [activator],inconclusive: 15.6%
CCN(CC)C(=O)N1CCN(C)CC1,–,inconclusive: 33.9% [at 27 µM]
CCCCCCCCCCCCCCCS(=O)(=O)Oc1ccccc1,–,inconclusive: -12.9%
CC(=O)Oc1ccc(C2(c3ccc(OC(C)=O)cc3)C(=O)Nc3ccccc32)cc1,active: 16.9 µM and active: 26.8 µM,–
Nc1nnc(-c2ccc([N+](=O)[O-])o2)o1,–,inconclusive: -29%
Clc1ccc2cc3ccccc3cc2c1,–,inconclusive: -24.1%
O=C1NC2CCCCN2C12CCN(CCCN1c3ccccc3CCc3ccc(Cl)cc31)CC2 (stereo not given),active: 23.9 µM,–
COc1cc(/C=C/C(=O)O[C@H]2CC[C@]34C[C@]35CC[C@]3(C)[C@@H]([C@H](C)CCC=C(C)C)CC[C@@]3(C)[C@@H]5CC[C@H]4C2(C)C)ccc1O,"inconclusive: 3.79 µM [cytotoxic, full curve]",–
O=[N+]([O-])c1ccc2c(c1)Cc1ccccc1-2,"inconclusive: 19.5 µM [inhibitor, full curve, poor fit]",inconclusive: -12.4%
CN1C[C@H]2c3ccccc3Oc3ccc(Cl)cc3[C@@H]2C1,"inconclusive: 9.52 µM [inhibitor, partial curve, poor fit]",–
NC(=O)c1ncn([C@@H]2O[C@H](CO)[C@@H](O)[C@H]2O)n1,–,inconclusive: 25.3% [at 78.9 µM]
O=c1cccccc1O,"inconclusive: 19.9 µM [rising, partial curve, poor fit]",–

Structure (SMILES),Potency,"activity change, negative = inhibition"
CC1(C)CCC(C)(C)c2cc(C(=O)Nc3ccc(C(=O)O)cc3)ccc21,"inconclusive: 61.6 µM [cytotoxic, single point]",–
O=CCCCC=O,"inconclusive: 59.4 µM [activator, single point]",inconclusive: 12.3% and inconclusive: 14.3%
CN1CCN2c3ccccc3Cc3ccccc3C2C1 (stereo not given),"inconclusive: 26.8 µM [cytotoxic, single point]",–
CCCCCC(CC)OC(=O)CCCOc1ccc(Cl)cc1Cl (stereo not given),–,inactive: -10.1%
CC(C)CCCC(C)CCO (stereo not given),–,inactive: 5.52%
COc1cc(C(C)C)c2c(c1)S(=O)(=O)N(COc1cc(=O)n3cccc(OCCN4CCCCC4)c3n1)C2=O,active: 10.4 µM,–
[Cl][Pt-2]([Cl])([Cl])[Cl],"inconclusive: 31 µM [fluorescent, partial curve, poor fit]",–
COC1=C(OC)C(=O)C(CCCCCCCCCCO)=C(C)C1=O,–,inconclusive: -31.1%
C/C(=C\C(C)CC(C)CC(C)C)C1CC(=O)OC1=O (stereo not given),active: 24.6 µM,–
O=C(O)CNc1ccccc1,–,inactive: -1.47%
CC(=O)Nc1ncc([N+](=O)[O-])s1,–,inconclusive: -6.5%
CCCCCCCCCCCCCCCCOP(=O)([O-])OCC[N+](C)(C)C,–,inconclusive: 5.2%
NS(=O)(=O)c1cc2c(cc1Cl)NC(CC1CCCC1)NS2(=O)=O (stereo not given),–,inactive: 11.1% [at 27 µM]
CCCCCCCCCCCC[N+](C)(C)Cc1ccccc1,"inconclusive: 15.1 µM [cytotoxic, partial curve] and inconclusive: 24.1 µM [cytotoxic, single point] and inconclusive: 37.7 µM [cytotoxic, partial curve]",–
CC(CCc1ccccc1)NCC(O)c1ccc(O)c(C(N)=O)c1 (stereo not given),–,inconclusive: 0.203% and inconclusive: 22.6%
CC(=O)OC(OC(C)=O)c1ccc([N+](=O)[O-])o1,active: 55.9 µM,–
CCCCC,inactive,–

# Same assay, conditions: GR-bla HeLa, beta-lactamase FRET ratio, dexamethasone-stimulated, 18 h; at 58.5 µM (top of the series)
row,Structure (SMILES),"activity change, negative = inhibition"
1,NC(=O)c1ncn([C@@H]2O[C@H](CO)[C@@H](O)[C@H]2O)n1,inactive: 26.9%
2,Cc1c(C)c2c(c(C)c1O)CC[C@@](C)(CCC[C@H](C)CCC[C@H](C)CCCC(C)C)O2,inconclusive: -19.6% and inconclusive: -9.56%

# Same assay, conditions: GR-bla HeLa, beta-lactamase FRET ratio, dexamethasone-stimulated, 18 h; at 78.9 µM (top of the series)
row,Structure (SMILES),"activity change, negative = inhibition"
1,Cc1c(C)c2c(c(C)c1O)CC[C@@](C)(CCC[C@H](C)CCC[C@H](C)CCCC(C)C)O2,inconclusive: -8.23%
